Test results as given in PubChem BioAssay AID1508642 (National Center for Advancing Translational Sciences (NCATS), 2021).
Among all 43,000 compounds or so, about 200 (0.47%) were called active. Inconclusive results (about 12%) are left out. The call rests on the fitted dose curve; in most records, active means well fitted cell-killing curve with a large enough effect; inconclusive means small, poorly fitted or top-dose-only effect, or effect the other way; inactive means flat fitted curve, though single readings scatter. Some of the results follow.

Test: Cell viability qHTS assay in S16 Pmp22-F2sN cells; further: nearly all actives have a fitted effect of over 65% in size
Conditions: S16 Pmp22-F2sN Schwann cells (luciferase reporters placed in the Pmp22 gene) viability, CellTiter-Glo, 24 h; series mostly up to 57.5 µM; activity change, negative = cytotoxicity: at the top concentration
Summary of the method: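 CellTiter-Glo counter-screen, qHTS, 1536-well. Cells: S16(c9) Pmp22-F2sN, 500-1,000/well in DMEM + 10% FBS. Cpd 23 nL pin transfer, 24 h, 37C/5% CO2. Read: luminescence, CCD imager.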
On the % scale 0 is the no-effect control and ±100 the full control effect.

Structure (SMILES)	activity change, negative = cytotoxicity
Cc1ccc(OCc2nc(-c3ccc(C(=O)N4CCN(c5ccc(Cl)cc5)CC4)cc3)oc2C)cc1	inactive: 12.1%
CCCCCCn1c(CNC(=O)c2ccccc2)nc2ccccc21	inactive: 4.95%
CCCn1c(=O)sc2cc(NC(=O)c3ccccc3OCC)ccc21	inactive: 3.97%
Cc1cc(C(=O)NCc2ccccc2C)c2c(C)nn(-c3cccc(F)c3)c2n1	inactive: -3.3%
CCOC(=O)C1=C(CN2CCN(CC)CC2)NC(=O)NC1c1ccc(Cl)cc1 (centres undefined)	inactive: -1.64%
COc1ccc(CNC(=O)c2nnn(CC(=O)Nc3cc(C)cc(C)c3)c2N)cc1	inactive: -2.52%
COc1ccccc1C(=O)NC1(C(F)(F)F)C(=O)Nc2c1c(=O)[nH]c(=O)n2CCc1ccccc1 (centres undefined)	inactive: -2.43%
Cc1ccc(C)c(CN2CCCN(Cc3cc(C)ccc3C)S2(=O)=O)c1	inactive: -7.03%
CCCn1c(SCC(O)c2cccc(OC)c2)nc2ccccc21 (centres undefined)	inactive: 9.26%
O=C(Nc1ccc(N2CCN(CCOc3ccc(Cl)cc3)CC2)c(C(=O)O)c1)c1ccc(F)cc1	inactive: 29.4%
Cc1ccc(S(=O)(=O)C(CNC(=O)C(=O)NCCc2ccccc2)c2ccco2)cc1 (centres undefined)	inactive: -16.4%
CCc1nc2ccccc2n1CCCCOc1ccccc1C	inactive: -14.2%
CCc1ccccc1NC(=O)Cn1c(=O)nc(-c2ccccc2)c2ccccc21	inactive: 6.83%
COc1ccc(CCNC(=O)CCn2c(=O)c3ccccc3n(Cc3ccc(Cl)cc3)c2=O)cc1OC	inactive: -14.9%
COc1ccc(S(=O)(=O)c2cn(Cc3ccccc3)c3cc(N4CCCC4)c(F)cc3c2=O)cc1	inactive: -7.83%
COc1ccc(CCNC(=O)CCCCn2c(=O)c3ccccc3n(CC(=O)Nc3ccccc3C)c2=O)cc1OC	inactive: 8.09%
CCCOc1cccc(C(=O)Nc2ccc(-c3nc4ccccc4s3)c(Cl)c2)c1	inactive: 4.54%
CCN1C(C(=O)c2ccccc2)=C(OC(=O)C(C)C)c2ccccc2S1(=O)=O	inactive: -11.3%
CCCC(O)c1nc2ccccc2n1CCCCOc1ccc(OC)cc1 (centres undefined)	inactive: -1.92%
Cc1cc(C)cc(NC(=O)CSc2nncn3c2cc2occc23)c1	inactive: -1.33%
COc1ccc(CNC(=O)C2CCN(c3nc4ccc(C)cc4[nH]3)CC2)cc1	inactive: 0.113%
CCOc1ccc(CCNC(=O)Cn2nc(CC)n3c(cc4sc(CC)cc43)c2=O)cc1OCC	inactive: 0.666%
CCCCCn1c(=N)c(S(=O)(=O)c2ccccc2)cc2c(=O)n3ccccc3nc21	inactive: 10.8%
CC(NC(=O)c1ccc2c(c1)N(Cc1ccc(Cl)cc1)C(=O)c1ccccc1S2(=O)=O)c1ccccc1 (centres undefined)	inactive: 20.5%

Structure (SMILES)	activity change, negative = cytotoxicity
CCOc1cc2sc(N3CCC(C(=O)Nc4ccc(C)cc4)CC3)nc2cc1Br	inactive: -2.22%
CCOC(=O)c1sc(NC(=O)c2nc3ncccn3n2)c(C(=O)OC)c1C	inactive: -2.39%
CCc1ccc(CSc2nc(-c3ccc(OC)cc3)nc3c2Cc2c(CO)cnc(C)c2O3)cc1	inactive: 5.7%
CCn1c(=O)c2cc(C(=O)NC3CCCCCC3)sc2c2ccccc21	inactive: 2.52%
O=c1oc2c(CN3CCOCC3)c(O)ccc2cc1-c1ccc(Cl)cc1	inactive: -6.52%
Cc1ccc(NC(=O)Cn2ncn3c(cc4ccccc43)c2=O)c(C)c1	inactive: 7.2%
CCOc1ccc(C2CC(=O)n3nc(-c4ccc(C)cc4)nc3S2)cc1 (centres undefined)	inactive: 0.791%
COc1ccc(CNC(=O)CSc2nc3ccsc3c(=O)n2Cc2ccccc2Cl)cc1	inactive: 18.5%
CCc1ccc(N2C(=O)CC(c3cc(OC)ccc3OC)C3=C2COC3=O)cc1 (centres undefined)	inactive: 14.5%
Cc1cc2oc(C(=O)Nc3sc4c(c3C(=O)NCC3CCCO3)CCC4)cc(=O)c2cc1C (centres undefined)	inactive: 1.49%
O=C(Nc1ccc2oc(-c3cccnc3)nc2c1)c1ccc(-c2ccc(Cl)cc2)o1	inactive: 13.3%
CCOc1cc(CNC(=O)c2ccc(C)c(NC(=O)c3nsc4ccccc34)c2)ccc1OC	inactive: 3.67%
COc1ccccc1CNC(=O)Cc1csc2nc(-c3ccc(Cl)cc3)cn12	inactive: 6.29%
COc1cc(CNc2ccc3[nH]c(=O)[nH]c3c2)ccc1OCc1ccccc1F	inactive: 0.656%
CCN(C(=O)CSc1nc2ccccc2n1CC(=O)Nc1ccccc1C)c1ccccc1	inactive: 6.52%
COc1ccc(-n2ccn(Cc3ccccc3Cl)c(=O)c2=O)cc1OC	inactive: -4.08%
Cc1cc(C)cc(NC(=O)CCc2nnc3n(CC(C)C)c(=O)c4ccccc4n23)c1	inactive: 16%
CC(C)N(Cc1ccccc1)C(=O)CN1C(=O)COc2ccc(S(=O)(=O)NC3CCCC3)cc21	inactive: -7.33%
Cc1ccc(NC(=O)CSc2nc3nccnc3c(=O)n2CCc2c[nH]c3ccccc23)cc1	inactive: 0.653%
CCOC(=O)c1cc2c(=O)n3ccccc3nc2n(CCCOC)c1=NC(=O)C(C)(C)Oc1ccc(Cl)cc1	inactive: -22.8%
CN(C)c1ccc(C(CNS(=O)(=O)c2ccc(Br)cc2)N2CCCC2)cc1 (centres undefined)	inactive: 2.47%
O=C(CCNS(=O)(=O)c1ccc2c(c1)CCN2C(=O)C1CC1)N1CCN(c2ccccc2F)CC1	inactive: -15.1%
CCOc1ccc(S(=O)(=O)N2CCN(c3ccc(Cl)c(Cl)c3)CC2)c2ccccc12	inactive: -5.71%
COc1ccccc1CNC(=O)CN1C(=O)CSc2ccc(S(=O)(=O)N(C)C)cc21	inactive: -6.95%

Structure (SMILES)	activity change, negative = cytotoxicity
CCc1nc2cccnc2n1-c1ccc(CC(=O)Nc2ccc(C)cc2)cc1	inactive: -15.2%
O=C(Cn1c(=O)n(-c2ccccc2Cl)c(=O)c2sc3ccccc3c21)N1CCCC1	inactive: 11.2%
CCOc1ccc(CNC(=O)c2cnc3sc(N(CC)CC)nn3c2=O)cc1OC	inactive: -0.809%
CCCn1c(CCC(=O)Nc2cc(Cl)c(OC)cc2OC)nc2cccnc21	inactive: -3.64%
COc1ccc(NC(=O)CC2C(=O)N(c3ccc(C)cc3)C(=O)N2C2CCCCC2)cc1 (centres undefined)	inactive: 9.89%
O=C(CCSCc1ccccc1Cl)N1CCN(c2cccc(Cl)c2)CC1	inactive: -1.07%
CCn1nc(-c2ccccc2)c(-c2ccccc2)c(C(=O)Nc2nc(C)c(C(=O)N(C)C)s2)c1=O	inactive: 0.611%
COc1cc(/C=C(\C#N)c2nc3ccccc3[nH]2)ccc1OCc1cccc(C(F)(F)F)c1	inactive: -3.83%
CCOc1ccccc1NC(=O)c1ccc(F)c(S(=O)(=O)NCc2ccc3c(c2)OCO3)c1	inactive: -1.12%
CCCCNC(=O)CCCn1c(=O)c2ccccc2n(CC(=O)Nc2ccccc2OCC)c1=O	inactive: -7.72%
COc1ccc(CNc2ncnc3onc(-c4ccc(F)cc4)c23)cc1	inactive: -18.7%
Cn1c(=O)c2c(ncn2CC(=O)Nc2cccc(Cl)c2Cl)n(C)c1=O	inactive: 3.4%
CN(C(=O)Cn1cc(S(=O)(=O)Cc2ccccc2Cl)c2ccccc21)c1ccccc1	inactive: -11.4%
Cc1ccc(Cl)cc1N1CCN(S(=O)(=O)c2ccc3c(c2)CC(C)N3C(=O)C2CCC2)CC1 (centres undefined)	inactive: -7.84%
CCOCCCNc1ncnc2onc(C)c12	inactive: -9.94%
CC(=O)c1ccc(NC(=O)c2sc(-n3nc(C)c(Cc4ccccc4)c3C)nc2C)cc1	inactive: 28.6%
Cc1cccc(NC(=O)Nc2nnc(N(C)Cc3ccccc3)s2)c1	inactive: 0.998%
CCN(Cc1ccccc1)Cc1c(O)ccc2c(=O)c(-c3ccc(Cl)cc3Cl)coc12	inactive: -21.3%
Cc1ccccc1C(=O)NC1(C(F)(F)F)C(=O)Nc2c1c(=O)[nH]c(=O)n2-c1ccc(F)cc1 (centres undefined)	inactive: 2.02%
COc1cccc(Cn2c(CNC(=O)c3cc([N+](=O)[O-])ccc3Cl)nc3cccnc32)c1	inactive: 1.91%
COc1ccccc1CNC(=O)CCCn1c(=O)c2ccccc2n(CC(=O)Nc2c(C)cc(C)cc2C)c1=O	inactive: -5.11%
COCCCNC(=O)c1ccc2c(c1)N(Cc1ccccc1)C(=O)c1ccccc1S2	inactive: 16.1%
O=C(CSc1nc(=O)n(CCN2CCOCC2)c2c1CCC2)Nc1ccccc1	inactive: 24%
CCOC(=O)c1sc(NC(=O)C2c3ccccc3Oc3ccccc32)c(C(=O)OCC)c1C	inactive: 7.08%

Structure (SMILES)	activity change, negative = cytotoxicity
CCn1cc(C(=O)NCc2ccccc2Cl)c(=O)c2cc(S(=O)(=O)N3CCc4ccccc4C3)ccc21	inactive: -4.83%
CC(NC(=O)Cn1c(=O)oc2cc(S(=O)(=O)NCc3ccccc3)ccc21)c1ccccc1 (centres undefined)	inactive: 0.0823%
Cc1ccccc1Nc1nc(-c2cccc(Cl)c2)c2c(n1)-c1ccccc1OC2	inactive: -0.853%
COc1ccc(NC(=O)CSc2nnc(NC(=O)Nc3ccccc3)s2)cc1OC	inactive: -2.4%
CC(=O)c1ccc(NC(=O)COc2ccccc2-c2nc(-c3cccc(C)c3)no2)cc1	inactive: 10.1%
COC(=O)c1cccnc1-n1c(=O)c2cccnc2n(CC(=O)Nc2ccc(C)cc2C)c1=O	inactive: 3.02%
O=C(Nc1cc(C(F)(F)F)ccc1Cl)c1cc(-c2ccc3c(c2)OCCO3)on1	inactive: 21.4%
O=C(Nc1ccc(S(=O)(=O)Nc2ncccn2)cc1)c1ccccc1Cl	inactive: -5.22%
Cc1ccc2c(c1)N(C(=O)CCC(=O)NCc1ccccc1Cl)CC(C)O2 (centres undefined)	inactive: -16.6%
COC(=O)c1ccc(CSc2nc3c([nH]c4ccccc43)c(=O)n2-c2ccc(OC)cc2)o1	inactive: 3.49%
CCOC(=O)c1oc2ccc(S(=O)(=O)n3nc(-c4ccc(Br)cc4)cc3N)cc2c1C	inactive: -3.95%
COc1ccc(CNC(=O)c2c3c(nc4ccccc24)C(=O)N(C2CCCCC2)C3)cc1	inactive: 0.23%
CC1CCc2c(sc(NC(=O)C3c4ccccc4Oc4ccccc43)c2C(=O)OC(C)C)C1 (centres undefined)	inactive: 8.96%
CCOC(=O)c1scc(-c2ccccc2)c1S(=O)(=O)Nc1cc(Cl)c(OC)cc1OC	inactive: 16.9%
Cc1ccc(S(=O)(=O)NCc2nc(-c3cccc(C)c3)no2)cc1	inactive: -2.73%
COc1ccc(C2CC(=O)N(Cc3cccc(F)c3)c3ccccc3S2)cc1 (centres undefined)	inactive: -21.5%
COc1ccccc1CNS(=O)(=O)c1ccc2c(c1)NC(=O)CC(=O)N2	inactive: 2.6%
Cc1ccc(-n2nc(C)c3c(C(=O)NCc4ccccc4)cc(C4CC4)nc32)cc1	inactive: -1.37%
COc1ccccc1Nc1nn2c(=O)c3ccc(C(=O)N4CCCC(C)C4)cc3nc2s1 (centres undefined)	inactive: 15%
CCCc1nc(SCc2cc(=O)c3ccc(C)c(C)c3[nH]2)n[nH]1	inactive: -1.04%
COc1ccc(S(=O)(=O)N2CCN(Cc3nc4ccc(C)cc4o3)CC2)cc1Cl	inactive: -20.3%
Cc1ccc(NC(=O)c2ccc(-n3c(C)nnc3C)cc2)cc1F	inactive: -22.3%
